Results taken from PubChem BioAssay AID445 (National Center for Advancing Translational Sciences (NCATS), 2006).
Among all 110,000 compounds or so, about 40 (0.04%) were called active. This list was built around the results that the source calls inconclusive (neither active nor inactive); the mix of calls is not that of the screen. Calls follow the shape of the dose curve; as a rule, active = well fitted curve in the direction sought with a large enough effect in the signal ratio (not every such curve was filed as active); inconclusive = small, poorly fitted or top-dose-only effect, or a change in a side signal; inactive = flat fitted curve, though single readings scatter; the % refers to the signal ratio. Where the call is inconclusive, the potency comes from a doubtful curve fit.

test: IkB Signaling; details: ABC-DLBCL IkBa-CBG/CBR dual luciferase ratio (green luciferase fused to IkBa over red control in OCI-Ly3 lymphoma cells), 4 h; IkBa stabilization activation: at 57.1 µM (top of the series), scaled: untreated 0%, proteasome inhibitor 100% unless noted;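 as to IkBa stabilization activation: 0% = basal untreated cells and 100% = reference inhibitor full response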
Outline: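 In this assay, an IκBα–CBG68 fusion accumulates when IKK-driven degradation is blocked; native CBR normalizes for cell number. OCI-Ly3 cells were treated 4 h with compound and doxycycline, then green and red light read after Chroma-Glo addition.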
Potency is read from the fitted curve at half-maximal effect.

Compound | IkBa stabilization activation | Potency
COC(=O)c1c(-c2ccc(Cl)cc2)noc1N1CCN(c2cccc(C(F)(F)F)c2)CC1 | inconclusive: 2.33% [signal inhibitor] | 
O=C(Nc1ccccc1C(=O)OCc1cc(=O)n2c3c(sc2n1)CCCC3)c1cccc(Cl)c1 | inconclusive: 4.51% [signal inhibitor] | 
Cc1cc(C)nc(NS(=O)(=O)c2ccc(NC(=O)COc3ccc(C(C)(C)C)cc3)cc2)n1 | inconclusive: 8.62% [signal inhibitor] | 
CCOC(=O)CC(NC(=O)N1CCC(CN2CCC(C)CC2)CC1)c1ccccc1 (configuration not stated) | inconclusive: 0.762% [signal inhibitor] | 
CCN(CC)CCCN1C(=O)c2oc3ccccc3c(=O)c2C1c1cccnc1 (configuration not stated) | inactive | 
Cc1cccc(C)c1Nc1c(-c2ccsc2)nc2ccc(Cl)cn12 | inconclusive: 10.1% [signal inhibitor] | 
O=C1[C@@H]2C(c3ccccc3Cl)=NO[C@@H]2C(=O)N1Cc1ccccc1 | inactive | 
CCOC(=O)c1c(-c2ccccc2)csc1NC(=O)c1cc(-c2ccc(Cl)cc2)on1 | inconclusive: 8% [signal inhibitor] | 
CC1=C(C(=O)Nc2ccc(C)cc2C)C(c2ccccc2)n2ncc(C(=O)Nc3ccccc3)c2N1 (configuration not stated) | inconclusive: 11.4% [signal inhibitor] | 
CCC(C)Sc1nc2c(c(=O)[nH]c(=O)n2C)n1CCc1ccccc1 (configuration not stated) | inactive | 
COC(=O)c1ccc2c(=O)n(CCCCCC(=O)N3CCN(c4ccc(OC)cc4)CC3)c(=O)[nH]c2c1 | inconclusive: -3.5% [signal inhibitor] | 
COc1cccc(C2=NOC(C(=O)NCc3ccccc3)C2)c1 (configuration not stated) | inactive | 
Cc1ccc(NC(=O)C2CCCN(S(=O)(=O)c3cccc4cccnc34)C2)c(C)c1 (configuration not stated) | inconclusive: 0.813% [signal inhibitor] | 
CCOC(=O)CSc1nc2ccc(NC(=O)c3ccccc3F)cc2s1 |  | inconclusive: 15.8 µM [signal inhibitor, partial curve]
Cc1onc(-c2ccccc2Cl)c1C(=O)Nc1sc2c(c1C#N)CCC2 | inconclusive: 7.26% [signal inhibitor] | 
CCOc1ccc(CNC(=O)c2ccc(Sc3ccc(Cl)cc3)c(NC(C)=O)c2)cc1OC | inconclusive: 4.15% [signal inhibitor] | 
CC(=O)c1ccc(N2CCN(C(=O)COc3ccc(F)cc3)CC2)c(F)c1 | inconclusive: 2.6% [signal inhibitor] | 
O=C(NCCC1=CCCCC1)c1ccc2c(c1)ncn2-c1ccc(F)c(F)c1 | inactive | 
CC(C)(C)OC=O | inactive | 
CCc1ccc(Nc2nc(N)nc(CSc3nc4ccccc4s3)n2)cc1 | inconclusive: 13.1% [signal inhibitor] | 
O=C(NCc1cccc(F)c1)c1cccc(NC(=O)c2nsc3ccccc23)c1 | inconclusive: 1.26% [signal inhibitor] | 
COc1ccc(OC)c(C2c3c(oc4ccc(C)cc4c3=O)C(=O)N2CCCN(C)C)c1 (configuration not stated) | inconclusive: 2.8% [signal inhibitor] | 
Nc1ccc(CCc2nc3ccccc3o2)cc1 | inactive | 
C=Cc1c(C)c2cc3[nH]c(cc4nc(cc5nc(cc1[nH]2)C(C)=C5CCC(=O)O)C(CCC(=O)O)=C4C)c(C)c3C=C | inactive | 

Compound | IkBa stabilization activation | Potency
CCc1ccccc1NS(=O)(=O)c1ccc2c(c1)OCC(C(=O)N1CCCC1)O2 (configuration not stated) | inconclusive: -0.974% [signal inhibitor] | 
CCCN(CCC)C(=O)CSc1nc2sc3c(c2c(=O)n1-c1ccccc1)CCN(C(C)=O)C3 | inactive | 
CCOCc1cc(CN2CCN(c3cccc(Cl)c3)CC2)c(O)c2ncccc12 | inactive | 
Nc1nc(Cl)nc2c1ncn2[C@@H]1O[C@@H](CO)[C@@H](O)[C@H]1O | inconclusive: 8.63% [signal activator] | 
Cc1cccc(-n2ncc3c(NC4CCCC4)ncnc32)c1 | inconclusive: 3.58% [signal inhibitor] | 
CCC(CC)C(=O)Nc1cccc(-c2nc3ccccc3s2)c1 | inactive | 
CCOc1ccc(-c2nnc(SCC(=O)NCc3ccc(C)cc3)nc2-c2ccc(OCC)cc2)cc1 | inactive | 
Cc1ccc(Cl)cc1NC(=O)Cn1c(=O)c2ccccc2n2nncc12 | inconclusive: 1.95% [signal inhibitor] | 
Cc1cccc2cc(COC(=O)COc3ccccc3)c(=O)[nH]c12 |  | inconclusive: 2 µM [signal inhibitor, full curve]
COCCNC(=O)c1cc(-c2ccccc2OC)on1 |  | inconclusive: 25.1 µM [signal inhibitor, partial curve]
C=CCn1c(COc2ccc(Cl)cc2)nnc1SCC(=O)N1CC(=O)Nc2ccccc21 | inconclusive: 3.86% [signal inhibitor] | 
CCOc1ccccc1NC(=O)c1nnn(CC(=O)Nc2ccc(OC)c(OC)c2)c1N | inconclusive: 0.678% [signal inhibitor] | 
CCCCC(CC)CNC(=O)c1ccc2c(=O)n(Cc3ccc(OC)cc3)c(=O)[nH]c2c1 (configuration not stated) | inactive | 
Cc1cc(=O)n2nc(N3CCC(C(=O)Nc4ccc(C)c(Cl)c4)CC3)sc2n1 | inconclusive: 1.05% [signal inhibitor] | 
CCSc1ncc(Cl)c(C(=O)Nc2nc3ccc(OC)cc3s2)n1 | inconclusive: -0.624% [signal inhibitor] | 
Cc1ccc(O)c(N=Nc2ccccc2)n1 | inactive | 
CCOc1cc(C2c3c(-c4ccc(Br)cc4)n[nH]c3C(=O)N2c2ccc(Cl)cc2)ccc1O (configuration not stated) | inconclusive: -0.903% [signal inhibitor] | 
O=C(NC1CCCC1)c1cnn2c(C(F)(F)F)cc(-c3ccco3)nc12 | inactive | 
CCCn1c2ccccc2c2cnn(CC(=O)NCCc3ccccc3)c(=O)c21 | inactive | 
COC(=O)c1ccc(Cn2c(=O)cc(C(F)(F)F)c3c(C)nn(C)c32)cc1 | inactive | 
CCCCCc1nc2c(=O)n(C)c3ccccc3c2o1 | inconclusive: 10% [signal inhibitor] | 
CCN(c1ccc(OC)cc1)S(=O)(=O)c1ccc2[nH]c(=O)ccc2c1 | inconclusive: -0.0252% [signal inhibitor] | 
O=C(NCc1ccc(Cl)cc1)C1CCCN(c2nc3ccccc3n3cccc23)C1 (configuration not stated) | inconclusive: 2.17% [signal inhibitor] | 
O=C(Cn1c2ncccc2c(=O)n1-c1ccccc1)Nc1ccc(F)c(F)c1 | inconclusive: 2.75% [signal inhibitor] | 

Compound | IkBa stabilization activation | Potency
Cc1cc(N2CCCCC2)nc2ccc(NC(=O)/C=C/c3ccccc3Cl)cc12 | inconclusive: 3.06% [signal inhibitor] | 
Cc1ccccc1Cn1c(=O)n(CCc2ccccc2)c(=O)c2ccccc21 | inconclusive: 14.6% [signal inhibitor] | 
Cc1ccc(C#N)cc1 | inactive | 
CCCCC(=O)Nc1ccc2nc(SCC(=O)N3CCCC3)sc2c1 | inconclusive: -0.511% [signal inhibitor] | 
COc1ccc(CNC(=O)c2nn(-c3ccccc3C)nc2CO)cc1 | inconclusive: 1.17% [signal inhibitor] | 
CCOc1ccccc1CC1C(=O)Nc2ccc(Br)cc21 (configuration not stated) | inconclusive: 5.63% [signal inhibitor] | 
Cc1cc(OCc2ccc(F)cc2)nc(-c2ccccc2O)n1 | inactive | 
COc1cc2cc(Oc3ccc4ccc(=O)oc4c3)c(=O)oc2cc1O | inactive: 1.56% [at 11.4 µM, scaled: untreated 0%, proteasome inhibitor 100%] | 
CCC(C)NC(=O)CCc1c(C)nc2cc(-c3ccc(OC)cc3OC)nn2c1C (configuration not stated) |  | inconclusive: 5.01 µM [signal inhibitor]
COc1ccccc1-c1cc2nc(C)c(CCC(=O)Nc3cc(C)ccc3C)c(C)n2n1 | inconclusive: 15.5% [signal inhibitor] | 
CCc1cccc(NC(=O)c2ccc(CNS(=O)(=O)c3ccc4c(c3)C(C)(C)C(=O)N4C)cc2)c1 | inconclusive: -0.742% [signal inhibitor] | 
COC(=O)c1ccccc1-n1cc2c(c1-c1cccc(C)c1)c(=O)n(C)c(=O)n2C | inactive | 
CCOC(=O)c1cnc2ccc(Cl)cc2c1Nc1ccc(N2CCOCC2)cc1 | inconclusive: -9.6% [signal inhibitor] | 
O=C(Nc1ccc(C(=O)N2CCN(c3ccccc3)CC2)cc1)c1nsc2ccccc12 |  | inconclusive: 1 µM [signal inhibitor, full curve]
O=C(CSCc1cnn(-c2ccccc2)c1-n1cccc1)NCCN1CCOCC1 | inactive | 
CCCN(CCC)CCNC(=O)C1CCN(c2nc3ccc(CC)cc3s2)CC1 | inconclusive: -0.212% [signal inhibitor] | 
Cc1cccc(-c2nc3ccccc3n3c(-c4ccccc4)c4c(=O)n(C)c(=O)n(C)c4c23)c1 | inactive | 
CN(C)c1ncc2nc(-c3ccccc3)c(=O)n(C3CC3)c2n1 | inactive: -1.21% [at 11.4 µM, scaled: untreated 0%, proteasome inhibitor 100%] | 
CCOC(=O)Cn1c(=O)oc2cc(S(=O)(=O)NCCCc3ccccc3)ccc21 |  | inconclusive: 20 µM [signal inhibitor, partial curve]
O=C(CC(=O)N1CCN(c2ccccn2)CC1)Nc1ccc2nc3n(c(=O)c2c1)CCCCC3 | inactive | 
CC(C)CC(C(=O)Nc1oc(-c2ccco2)c(-c2ccco2)c1C#N)N1C(=O)c2ccccc2C1=O (configuration not stated) | inconclusive: 8.05% [signal inhibitor] | 
O=C(NCc1ccccc1Cl)c1cc2cccc3c2n1CCS3 | inconclusive: 0.827% [signal inhibitor] | 
COc1ccccc1-c1nc(-c2ccc(C)nc2OC)no1 | inactive | 
c1ccc(N2CCN(c3ccccc3)C2c2cccs2)cc1 | inconclusive: 15.2% [signal inhibitor] | 
